Test results taken from patent US20230382995A1 (BEIJING MABWORKS BIOTECH, published 2023).
Blank lines part the entries; values can stand above or below the binder they belong to.

Key:
[1] = molecular target: T1, human PD-L1 (ECD)-his protein (Cat #:10084-H08H, Sino Biological) (human, UniProt Q9NZQ7 part only); assay: SPR (BIAcore 8K), PD-L1 (ECD)-his coupled to the chip, fusion protein injected
T1 construct: Bought reagent; also called human PD-L1 protein; not shown: his tag of the bought protein
Experimental: The equilibrium dissociation constant KD was calculated as the kd/kₐ ratio.

[2] = molecular target: T2, mouse PD-L1 on HEK293A/mouse PD-L1 cells (mouse, UniProt Q9EP73); assay: FACS on HEK293A/mouse PD-L1 cells
T2 construct: Stably expressed on HEK293A cells by lentiviral transduction

[3] = molecular target: T3, monkey PD-L1 on HEK293A/monkey PD-L1 cells (monkey, UniProt Q9NZQ7 (human entry)); assay: FACS on HEK293A/monkey PD-L1 cells
T3 construct: Stably expressed on HEK293A cells by lentiviral transduction; also called HEK293/monkey PD-L1 cells; cell surface monkey PD-L1

[4] = molecular target: T4, human PD-L1 on HEK293A/human PD-L1 cells (human, UniProt Q9NZQ7); assay: FACS blocking assay: PD1-mFc binding to HEK293A/human PD-L1 cells
T4 construct: Stably expressed on HEK293A cells by lentiviral transduction; also called HEK293/human PD-L1 cells; cell surface human PD-L1

[5] = molecular target: T4, human PD-L1 on HEK293A/human PD-L1 cells; assay: FACS on HEK293A/human PD-L1 cells
T4 sequence (Q9NZQ7 19-290 limits assumed): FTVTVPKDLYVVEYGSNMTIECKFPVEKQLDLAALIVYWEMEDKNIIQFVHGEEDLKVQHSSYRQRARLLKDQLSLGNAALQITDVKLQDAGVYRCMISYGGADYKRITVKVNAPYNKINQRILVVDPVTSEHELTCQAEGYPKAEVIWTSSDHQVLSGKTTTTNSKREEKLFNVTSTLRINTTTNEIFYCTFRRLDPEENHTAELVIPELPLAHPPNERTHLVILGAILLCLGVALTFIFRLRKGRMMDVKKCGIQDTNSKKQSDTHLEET

T2 sequence (Q9EP73 19-290 limits assumed): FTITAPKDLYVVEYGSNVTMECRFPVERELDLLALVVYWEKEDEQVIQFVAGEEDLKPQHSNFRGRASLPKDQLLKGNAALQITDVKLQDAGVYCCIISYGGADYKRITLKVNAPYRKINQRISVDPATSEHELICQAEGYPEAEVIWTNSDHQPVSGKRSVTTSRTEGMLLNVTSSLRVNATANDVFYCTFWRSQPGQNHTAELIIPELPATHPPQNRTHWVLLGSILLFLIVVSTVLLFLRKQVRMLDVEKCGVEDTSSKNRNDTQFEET

B1: 10CA81-VHH4-Fc (humanized sdAb 10CA81-VHH4 fused to human IgG1 constant region) (Fc fusion)
chain: QVQLLESGGGLVQPGGSLRLSCAASGFAFSDYAMTWVRQAPGKGLEWVSTINSGGQSSSYTNSAKGRFTTSRDNSKNTLYLQMNSLRAEDTAVYYCAKGVYMPWKKPKGQGTLVTVSS[letters of human IgG1 Fc left out]
notes: Expressed in the ExpiCHO system
- Kd [1]: 2.26 nM

B3: 10CA81-VHH5-Fc (humanized sdAb 10CA81-VHH5 fused to human IgG1 constant region) (Fc fusion)
chain: QVQLLESGGGLVQPGGSLRLSCAASGFAVSDYAMTWVRQAPGKGLEWVSTINSGGQSSSYTNSAKGRFTISRDNSKNTLYLQMNSLRAEDTAVYYCSQGVYMPWKKPKGQGTLVTVSS[letters of human IgG1 Fc left out]
notes: Expressed in the ExpiCHO system; also called 10CA81-VH5-Fc
- Kd [1]: 4.54 nM

B4: 10CA192-VHH2-Fc (humanized sdAb 10CA192-VHH2 fused to human IgG1 constant region) (Fc fusion)
chain: QVQLLESGGGLVQPGGSLRLSCAASGFAFSDYAMTWVRQAPGKGLEWVSTINSGGQSSSYLDSVKGRFTISRDNSKNTLYLQMNSLRAEDTAVYYCAKGVYMPWKAPWGQGTLVTVSS[letters of human IgG1 Fc left out]
notes: as for B1
- Kd [1]: 0.8 nM

Results, then the binder that gave them:

- binding result [2]: no binding
- EC50 [3]: 0.13 nM
- EC50 [4]: 0.11 nM
- EC50 [5]: 0.23 nM
B2: 10CA81-Fc (camelid anti-PD-L1 sdAb 10CA81 fused to human IgG1 Fc region) (Fc fusion)
chain: QVQLQESGGGLVQPGGSLRLSCVASGFAFSDYAMTWVRQAPGKGLEWVSTINSGGQSSSYTNSAKGRFTTSRDNAKNTLYLQLNSLKIEDTAMYYCSQGVYMPWKKPKGQGTQVTVSS[letters of human IgG1 Fc left out]
notes: C-terminus of the sdAb linked to the N-terminus of the Fc region; also called fusion protein containing 10CA81

- Kd [1]: 0.679 nM
B5: 10CA192-VHH4-Fc (humanized sdAb 10CA192-VHH4 fused to human IgG1 constant region) (Fc fusion)
chain: QVQLLESGGGLVQPGGSLRLSCAASGFAFSDYAMTWVRQAPGKGLEWVSTINSGGQSSSYLDSVKGRFTSSRDNSKNTLYLQMNSLRAEDTAVYYCAKGVYMPWKAPKGQGTLVTVSS[letters of human IgG1 Fc left out]
notes: as for B1

- binding result [2]: no binding
- EC50 [3]: 0.17 nM
- EC50 [4]: 0.18 nM
- EC50 [5]: 0.51 nM
B6: 10CA192-Fc (camelid anti-PD-L1 sdAb 10CA192 fused to human IgG1 Fc region) (Fc fusion)
chain: QVQLQESGGGSVQAGGSLMLSCAASGFAFSDYAMTWVRQAPGKGLEWVSTINSGGQSSSYLDSVKGRFTSTRDNAKNMLYLQLNSLKIEDTAMYYCSQGVYMPWKAPKGQGTQVTVSS[letters of human IgG1 Fc left out]
notes: C-terminus of the sdAb linked to the N-terminus of the Fc region; also called fusion protein containing 10CA192; 10CA192-Fe
